# Assay results from the supplement of paper PMC8728848.
# This is one part of the list.
# What was measured:
# Experiment in all cases: glycan array binding signal (z-score within array); higher = stronger binding
# Conditions in all cases: glycan notation: IUPAC condensed, linker removed
# [1] = molecular target: GlcNAc(a1-4)Gal(b1-4)GlcNAc(b1-3)Gal(b1-4)GlcNAc(b1-3)Gal(b1-4)GlcNAc
# Procedure, shortened: (§1)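 Negative Z-scores can be read as non-binding. The Z-score is calculated within each array and then averaged across arrays of one protein sequence at different concentrations or buffers and across linkers. Arrays, 3228 in all, were curated from the Consortium for Functional Glycomics database and kept only where the protein sequence was available.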
# [2] = molecular target: GlcNAc(a1-4)Gal(b1-4)GlcNAc(b1-3)Gal(b1-4)[Fuc(a1-3)]GlcNAc(b1-3)Gal(b1-4)[Fuc(a1-3)]GlcNAc
# Procedure, shortened: as §1
# [3] = molecular target: GlcNAc(a1-6)Gal(b1-4)GlcNAc
# Procedure, shortened: as §1
# [4] = molecular target: GlcNAc(b1-2)Gal(b1-3)GalNAc
# Procedure, shortened: as §1
# [5] = molecular target: GlcNAc(b1-2)Man(a1-3)[GlcNAc(b1-2)Man(a1-6)]Man(b1-4)GlcNAc(b1-4)GlcNAc
# Procedure, shortened: as §1
# [6] = molecular target: GlcNAc(b1-2)Man(a1-3)[GlcNAc(b1-2)Man(a1-6)]Man(b1-4)GlcNAc(b1-4)[Fuc(a1-6)]GlcNAc
# Procedure, shortened: as §1
# [7] = molecular target: GlcNAc(b1-2)Man(a1-3)[GlcNAc(b1-4)][GlcNAc(b1-2)Man(a1-6)]Man(b1-4)GlcNAc(b1-4)GlcNAc
# Procedure, shortened: as §1
# [8] = molecular target: GlcNAc(b1-2)[GlcNAc(b1-4)]Man(a1-3)[GlcNAc(b1-2)Man(a1-6)]Man(b1-4)GlcNAc(b1-4)GlcNAc
# Procedure, shortened: as §1
# [9] = molecular target: GlcNAc(b1-2)[GlcNAc(b1-4)]Man(a1-3)[GlcNAc(b1-4)][GlcNAc(b1-2)Man(a1-6)]Man(b1-4)GlcNAc(b1-4)GlcNAc
# Procedure, shortened: as §1
# [10] = molecular target: GlcNAc(b1-2)[GlcNAc(b1-4)]Man(a1-3)[GlcNAc(b1-4)][GlcNAc(b1-2)[GlcNAc(b1-6)]Man(a1-6)]Man(b1-4)GlcNAc(b1-4)GlcNAc
# Procedure, shortened: as §1
# [11] = molecular target: GlcNAc(b1-2)[GlcNAc(b1-4)]Man(a1-3)[GlcNAc(b1-4)][GlcNAc(b1-2)[GlcNAc(b1-6)]Man(a1-6)]Man(b1-4)GlcNAc(b1-4)[Fuc(a1-6)]GlcNAc
# Procedure, shortened: as §1
# [12] = molecular target: GlcNAc(b1-2)[GlcNAc(b1-6)]Man(a1-6)[GlcNAc(b1-2)Man(a1-3)]Man(b1-4)GlcNAc(b1-4)GlcNAc
# Procedure, shortened: as §1
# [13] = molecular target: GlcNAc(b1-2)[GlcNAc(b1-6)]Man(a1-6)[GlcNAc(b1-2)Man(a1-3)]Man(b1-4)GlcNAc(b1-4)[Fuc(a1-6)]GlcNAc
# Procedure, shortened: as §1
# [14] = molecular target: GlcNAc(b1-2)[GlcNAc(b1-6)]Man(a1-6)[GlcNAc(b1-2)Man(a1-3)][GlcNAc(b1-4)]Man(b1-4)GlcNAc(b1-4)GlcNAc
# Procedure, shortened: as §1
# GlcNAc(b1-3)Gal = molecular target: GlcNAc(b1-3)Gal
# Procedure, shortened: as §1
# [15] = molecular target: GlcNAc(b1-3)Gal(b1-3)GalNAc
# Procedure, shortened: as §1
# GlcNAc(b1-3)Gal(b1-4)Glc = molecular target: GlcNAc(b1-3)Gal(b1-4)Glc
# Procedure, shortened: as §1
# [16] = molecular target: GlcNAc(b1-3)Gal(b1-4)GlcNAc
# Procedure, shortened: as §1
# [17] = molecular target: GlcNAc(b1-3)Gal(b1-4)GlcNAc(b1-3)Gal(b1-4)GlcNAc
# Procedure, shortened: as §1
# GlcNAc(b1-3)GalNAc = molecular target: GlcNAc(b1-3)GalNAc
# Procedure, shortened: as §1
# GlcNAc(b1-3)Man = molecular target: GlcNAc(b1-3)Man
# Procedure, shortened: as §1
# [18] = molecular target: GlcNAc(b1-3)[GlcNAc(b1-4)][GlcNAc(b1-6)]GlcNAc
# Procedure, shortened: as §1
# [19] = molecular target: GlcNAc(b1-3)[GlcNAc(b1-6)]Gal(b1-4)GlcNAc
# Procedure, shortened: as §1
# [20] = molecular target: GlcNAc(b1-3)[GlcNAc(b1-6)]GalNAc
# Procedure, shortened: as §1
# [21] = molecular target: GlcNAc(b1-4)Gal(b1-4)GlcNAc
# Procedure, shortened: as §1
# GlcNAc(b1-4)GlcNAc = molecular target: GlcNAc(b1-4)GlcNAc
# Procedure, shortened: as §1
# [22] = molecular target: GlcNAc(b1-4)GlcNAc(b1-4)GlcNAc
# Procedure, shortened: as §1
# [23] = molecular target: GlcNAc(b1-4)GlcNAc(b1-4)GlcNAc(b1-4)GlcNAc(b1-4)GlcNAc
# Procedure, shortened: as §1
# [24] = molecular target: GlcNAc(b1-4)GlcNAc(b1-4)GlcNAc(b1-4)GlcNAc(b1-4)GlcNAc(b1-4)GlcNAc
# Procedure, shortened: as §1
# [25] = molecular target: GlcNAc(b1-4)[GlcNAc(b1-6)]GalNAc
# Procedure, shortened: as §1
# [26] = molecular target: GlcNAc(b1-6)Gal(b1-4)GlcNAc
# Procedure, shortened: as §1
# GlcNAc(b1-6)GalNAc = molecular target: GlcNAc(b1-6)GalNAc
# Procedure, shortened: as §1
# GlcNAc3Prop(b1-4)GlcNAc = molecular target: GlcNAc3Prop(b1-4)GlcNAc
# Procedure, shortened: as §1
# [27] = molecular target: GlcNAc6S(b1-3)Gal(b1-4)GlcNAc
# Procedure, shortened: as §1
# Kdn(a2-3)Gal(b1-3)GalNAc = molecular target: Kdn(a2-3)Gal(b1-3)GalNAc
# Procedure, shortened: as §1
# Kdn(a2-3)Gal(b1-3)GlcNAc = molecular target: Kdn(a2-3)Gal(b1-3)GlcNAc
# Procedure, shortened: as §1
# Kdn(a2-3)Gal(b1-4)Glc = molecular target: Kdn(a2-3)Gal(b1-4)Glc
# Procedure, shortened: as §1
# Kdn(a2-3)Gal(b1-4)GlcNAc = molecular target: Kdn(a2-3)Gal(b1-4)GlcNAc
# Procedure, shortened: as §1
# [28] = molecular target: Kdn(a2-3)Gal(b1-4)[Fuc(a1-3)]GlcNAc
# Procedure, shortened: as §1
# Kdn(a2-6)Gal(b1-4)GlcNAc = molecular target: Kdn(a2-6)Gal(b1-4)GlcNAc
# Procedure, shortened: as §1
# [29] = molecular target: Man(a1-2)Man(a1-2)Man(a1-3)Man
# Procedure, shortened: as §1
# [30] = molecular target: Man(a1-2)Man(a1-2)Man(a1-6)[Man(a1-3)]Man
# Procedure, shortened: as §1
# Man(a1-2)Man(a1-3)Man = molecular target: Man(a1-2)Man(a1-3)Man
# Procedure, shortened: as §1
# [31] = molecular target: Man(a1-2)Man(a1-3)[Man(a1-2)Man(a1-6)]Man
# Procedure, shortened: as §1
# [32] = molecular target: Man(a1-2)Man(a1-3)[Man(a1-2)Man(a1-6)]Man(a1-6)[Man(a1-2)Man(a1-2)Man(a1-3)]Man
# Procedure, shortened: as §1
binder,measurement,setting,value
CCL1 (Coprinopsis cinerea) (protein) MDTQAKPPAGRYVIYNRVLSPNGEKLALTYPGYQREALTLTPLHHSANQIWILNNWDATTSSLTPETARNTQVGWGSGNVPIVLPPGNYVWTLASSAGGYIIQDGGKTVYWNAGEAVANTKVSIGGDNGLQARWIFERV,glycan array binding signal (z-score),[1],-0.135
same,glycan array binding signal (z-score),[2],0.517
same,glycan array binding signal (z-score),[3],-0.136
same,glycan array binding signal (z-score),[4],-0.116
same,glycan array binding signal (z-score),[5],-0.122
same,glycan array binding signal (z-score),[6],-0.153
same,glycan array binding signal (z-score),[7],-0.17
same,glycan array binding signal (z-score),[8],-0.15
same,glycan array binding signal (z-score),[9],-0.142
same,glycan array binding signal (z-score),[10],-0.141
same,glycan array binding signal (z-score),[11],-0.163
same,glycan array binding signal (z-score),[12],-0.148
same,glycan array binding signal (z-score),[13],-0.139
same,glycan array binding signal (z-score),[14],-0.143
same,glycan array binding signal (z-score),GlcNAc(b1-3)Gal,-0.138
same,glycan array binding signal (z-score),[15],-0.169
same,glycan array binding signal (z-score),GlcNAc(b1-3)Gal(b1-4)Glc,-0.138
same,glycan array binding signal (z-score),[16],-0.144
same,glycan array binding signal (z-score),[17],-0.15
same,glycan array binding signal (z-score),GlcNAc(b1-3)GalNAc,-0.169
same,glycan array binding signal (z-score),GlcNAc(b1-3)Man,-0.145
same,glycan array binding signal (z-score),[18],-0.058
same,glycan array binding signal (z-score),[19],-0.162
same,glycan array binding signal (z-score),[20],-0.141
same,glycan array binding signal (z-score),[21],-0.136
same,glycan array binding signal (z-score),GlcNAc(b1-4)GlcNAc,-0.149
same,glycan array binding signal (z-score),[22],-0.15
same,glycan array binding signal (z-score),[23],-0.154
same,glycan array binding signal (z-score),[24],-0.149
same,glycan array binding signal (z-score),[25],-0.132
same,glycan array binding signal (z-score),[26],-0.171
same,glycan array binding signal (z-score),GlcNAc(b1-6)GalNAc,-0.154
same,glycan array binding signal (z-score),GlcNAc3Prop(b1-4)GlcNAc,-0.139
same,glycan array binding signal (z-score),[27],-0.185
same,glycan array binding signal (z-score),Kdn(a2-3)Gal(b1-3)GalNAc,-0.079
same,glycan array binding signal (z-score),Kdn(a2-3)Gal(b1-3)GlcNAc,-0.141
same,glycan array binding signal (z-score),Kdn(a2-3)Gal(b1-4)Glc,-0.155
same,glycan array binding signal (z-score),Kdn(a2-3)Gal(b1-4)GlcNAc,-0.123
same,glycan array binding signal (z-score),[28],0.329
same,glycan array binding signal (z-score),Kdn(a2-6)Gal(b1-4)GlcNAc,-0.118
same,glycan array binding signal (z-score),[29],-0.152
same,glycan array binding signal (z-score),[30],-0.133
same,glycan array binding signal (z-score),Man(a1-2)Man(a1-3)Man,-0.164
same,glycan array binding signal (z-score),[31],-0.124
same,glycan array binding signal (z-score),[32],-0.146
